Experimental data reported in PMC6919601, “Identification of Plasmodium dipeptidyl aminopeptidase allosteric inhibitors by high throughput screening” (PLoS ONE, 2019).
The whole screen tested about 110,000 compounds, of which about 230 (0.21%) showed an effect of 50% or more. The list shows a part of the results.

What follows are compounds tested against DPAP1 (Plasmodium falciparum, UniProt Q8IIJ9) (assay: primary screen, percent inhibition; read by cleavage of a fluorogenic dipeptide substrate; higher = more effect of the substance).
DPAP1, sequence (Q8IIJ9 whole entry, looked up): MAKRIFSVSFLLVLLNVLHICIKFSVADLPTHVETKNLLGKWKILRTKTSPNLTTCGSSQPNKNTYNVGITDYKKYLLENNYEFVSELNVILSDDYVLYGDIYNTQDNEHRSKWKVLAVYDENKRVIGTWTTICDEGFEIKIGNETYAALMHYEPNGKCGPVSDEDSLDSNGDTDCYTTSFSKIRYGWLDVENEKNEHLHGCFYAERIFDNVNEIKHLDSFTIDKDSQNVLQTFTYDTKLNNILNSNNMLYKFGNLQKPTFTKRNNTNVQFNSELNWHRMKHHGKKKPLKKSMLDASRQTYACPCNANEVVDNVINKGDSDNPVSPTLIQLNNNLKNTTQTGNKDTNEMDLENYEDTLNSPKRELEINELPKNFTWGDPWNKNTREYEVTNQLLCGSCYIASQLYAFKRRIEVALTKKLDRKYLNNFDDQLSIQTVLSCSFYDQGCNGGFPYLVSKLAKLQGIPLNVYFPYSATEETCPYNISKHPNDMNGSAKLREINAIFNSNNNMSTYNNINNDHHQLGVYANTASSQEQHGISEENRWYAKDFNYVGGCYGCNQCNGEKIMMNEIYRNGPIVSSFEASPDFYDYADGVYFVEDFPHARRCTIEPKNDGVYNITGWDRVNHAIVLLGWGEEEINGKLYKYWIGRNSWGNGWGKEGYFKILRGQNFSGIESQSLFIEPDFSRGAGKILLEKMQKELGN
Set-up: species or system P. falciparum D10 trophozoite lysates; single well
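Also: 30 min substrate incubation versus DMSO and 10 µM JCP410 controls.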

SMILES | % Inhibition @ 10 uM [%]
N#CC1=C(N)OC2=C(C(=O)CCC2)C1c1ccc(Br)s1 (stereo not drawn) | -2
Cc1ccc(/C=C/c2nc(-c3c(F)cccc3F)no2)cc1 | -4.49
O=C(NC1(C(F)(F)F)N=C(c2ccccc2)N(C2CCCCC2)C1=O)c1ccco1 (stereo not drawn) | 17.8
COc1ccc(CCNC(=O)c2cccnc2Cl)cc1OC | 2.13
COc1ccc(CN2CCCCCC2)cc1Br | 4.81
Cc1ccc(C(=O)N(Cc2ccccc2F)C2CCS(=O)(=O)C2)cc1 (stereo not drawn) | -1.35
CCN1C(=O)NC(c2ccccc2)(c2ccccc2)C1=O | -2.44
CCN1CCN(Cc2cc(Br)ccc2O)CC1 | -1.78
Cc1ccc(NC(=O)OC2CCCCC2)cc1NC(=O)NCCO | 3.25
Cc1ccc(Cl)cc1N1C(=O)CC(N2CCN(c3ccccc3)CC2)C1=O (stereo not drawn) | -2.98
O=C(Nc1ccc2c(c1)oc1ccccc12)c1ccc(Cl)cc1Cl | -2.91
CC(C)C[C@H](NC(=O)C1CCNCC1)C(=O)N[C@@H](CCc1ccccc1)C(=O)C[N+](=O)[O-] | -2.35
CCc1cc(=O)oc2cc3occ(-c4cccc(OC)c4)c3cc12 | 2.21
CC(C)C[C@H](NC(=O)c1cc(-c2ccco2)cc(-c2ccco2)c1)C(=O)NCC#N | -8.26
CCc1noc(C)c1C(=O)Nc1nc(-c2cccc(Cl)c2)c(C)s1 | 3.94
O=C(c1ccncc1)N1CCN(Cc2cccc(Br)c2)CC1 | -3.97
CC[n+]1ccc2ccc(C)cc2c1S(=O)(=O)O | 2.1
COc1ccc(NC(=O)Nc2ccc(Cc3ccncc3)cc2)cc1OC | 5.24
Cc1cc(C)n(-c2nc3ccccc3[nH]2)n1 | 6.01
CCSc1nn2c(=O)c(Cc3ccccc3)nnc2s1 | -4.42
CCOc1ccc(Cc2nc(-c3ccc(Br)o3)no2)cc1OCC | -4.49

SMILES | % Inhibition @ 10 uM [%]
CC(C)(C)c1ccc(C(=O)O/N=C(\N)c2nonc2N)cc1 | -0.597
O=C1c2cccc3cccc(c23)C(=O)N1CC1CCNCC1 | 14.6
O=C(Cn1c2ccccc2c2cnnc(O)c21)NCCC1=CCCCC1 | -3.79
CC(C)NC(=O)/C=C/c1ccc(Cl)cc1 | -2.12
OCCC1CCCCN1Cc1ccc(Cl)c(Cl)c1 (stereo not drawn) | -2.36
CCOC(=O)N1CCN(S(=O)(=O)N2CCCC(C(=O)NCc3ccco3)C2)CC1 (stereo not drawn) | -3.12
COc1ccc(CNC(=O)CCS(=O)(=O)Cc2cccc(Cl)c2)c(OC)c1 | -2.99
Cc1ccccc1N1CCN(Cc2cc([N+](=O)[O-])ccc2Cl)CC1 | 1.63
CCOc1cc(CNC(=O)C2CCN(c3nnc(-n4cccc4)s3)CC2)cc(OCC)c1OCC | -10
COc1ccc(/C=C/C(=O)N2CCN=C2c2ccccc2)cc1OC | -1.52
COCCNC(=O)C1CCCN(c2nn3cc(-c4ccc(C)cc4)nc3s2)C1 (stereo not drawn) | -1.95
Cn1c2ccccc2c2c(C(=O)NCCc3ccc(Cl)cc3)cn(C3CCCC3)c(=O)c21 | 1.85
O[S+](N1CCCCCC1)C12CC3CC(CC(C3)C1)C2 (stereo not drawn) | -2.48
CCOc1ccc(CCNC2=NS(=O)(=O)C(c3ccc(C(C)C)cc3)=C2C)cc1 | 3.87
CCNc1nc(-c2ccccc2)cs1 | 89.1
CCN1CCC(NCc2cccc(Br)c2)CC1 | -1.5
O=C(CN1Cc2ccccc2C1=O)NCCC1=CCCCC1 | 0.264
COc1cc(C(=O)Nc2ccc(S(=O)(=O)NC(C)=O)cc2)cc(OC)c1OC | 0.316
COCCNC(=O)c1cnn2c(O)cc(C3CCN(C(=O)OC(C)(C)C)CC3)nc12 | -2.83
O=C(Nc1ccc(-c2ccc(NC(=O)c3ccncc3)cc2)cc1)c1ccncc1 | -2.98
Nc1ccc(Oc2ccc(S(=O)(=O)c3ccc(Oc4ccc(N)cc4)cc3)cc2)cc1 | 3.47

SMILES | % Inhibition @ 10 uM [%]
COc1cc(OC)c2c(c1)O[C@@H](c1ccc(OC)c(OC)c1)[C@H](O)C2 | 0.5
CCc1ccc(-c2cc3c(=O)n(CC(=O)NC4CCCC(C)C4C)nc(C)n3n2)cc1 (stereo not drawn) | 0.623
COc1ccc(OC)c(C2CCN(S(=O)(=O)c3csc(C(N)=O)c3)C2)c1 (stereo not drawn) | -7.46
O=C(Cc1ccc(F)cc1F)Nc1cccc2ccccc12 | -3.42
CC1(c2ccccc2)CC(C)(C)N(C(N)=O)c2ccccc21 (stereo not drawn) | 3.01
CCc1ccc(S(=O)(=O)c2nnn3c2nc(NC2CCCCC2)c2sccc23)cc1 | -1.97
O=C(NC1CCS(=O)(=O)C1)c1cccc(S(=O)(=O)N2CCOCC2)c1 (stereo not drawn) | 5.37
COc1ccc(S(=O)(=O)Nc2ncccn2)cc1 | 0.736
COc1cccc(-c2nc(SCC(=O)Nc3ccc(Cl)cc3)nc(O)c2C#N)c1 | 2.46
CC(CNC(=O)C1CCN(c2nc3ccccc3n3cccc23)CC1)c1ccccc1 (stereo not drawn) | 0.658
CCOC(=O)C1CCCN(Cc2ccccc2Cl)C1 (stereo not drawn) | -3.56
Cc1cc(-c2ccc(C)c(S(=O)(=O)N(Cc3ccco3)C3CCCC3)c2)on1 | -3.61
CN(Cc1ccccc1)S(=O)(=O)c1nnc(NC(=O)C23C[C@H]4C[C@@H](C2)C[C@@H](C3)C4)s1 | -3.42
Cc1ccc(C(=O)N/C(=C/c2cccnc2)C(=O)Nc2ccc(Cl)cc2)cc1 | 2.92
O=C(CSc1nc2ccsc2c(=O)n1Cc1ccc(C(=O)O)cc1)NCc1ccco1 | 6.35
CCC1CCC(C(=O)NC(C(=O)NCc2cccnc2)C(C)C)CC1 (stereo not drawn) | -4.06
COc1ccc(C)cc1N(CC(=O)Nc1ccc(C)c(C)c1)S(C)(=O)=O | -3.28
Cc1ccc(CC2CC(=O)N(CC(=O)O)C2=O)cc1 (stereo not drawn) | -5.07
Cc1cc(C)c2c(n1)sc1c3c(c(O)nc12)C(c1ccccc1)C(C#N)=C(N)O3 (stereo not drawn) | -6.18
CCOc1ccccc1C(=O)Nc1ccc(Br)cc1 | -4.59
O=C1C2CCCCC2C(=O)N1c1ccc(S(=O)(=O)Nc2ncccn2)cc1 (stereo not drawn) | -4.76
